Source: ChEMBL document CHEMBL2007661, “Compounds: GSK PKIS; Assays: UNC Frye lab” (2012)
Several values for one entry are separate records, joined by “and”; a condition that tells them apart may be missing. Identical values can stand only once.

Columns and labels:
[1] = target: T1, Inhibitor of nuclear factor kappa-B kinase subunit beta (Homo sapiens) (UniProt O14920); settings: at 1 µM
T1 sequence (whole entry): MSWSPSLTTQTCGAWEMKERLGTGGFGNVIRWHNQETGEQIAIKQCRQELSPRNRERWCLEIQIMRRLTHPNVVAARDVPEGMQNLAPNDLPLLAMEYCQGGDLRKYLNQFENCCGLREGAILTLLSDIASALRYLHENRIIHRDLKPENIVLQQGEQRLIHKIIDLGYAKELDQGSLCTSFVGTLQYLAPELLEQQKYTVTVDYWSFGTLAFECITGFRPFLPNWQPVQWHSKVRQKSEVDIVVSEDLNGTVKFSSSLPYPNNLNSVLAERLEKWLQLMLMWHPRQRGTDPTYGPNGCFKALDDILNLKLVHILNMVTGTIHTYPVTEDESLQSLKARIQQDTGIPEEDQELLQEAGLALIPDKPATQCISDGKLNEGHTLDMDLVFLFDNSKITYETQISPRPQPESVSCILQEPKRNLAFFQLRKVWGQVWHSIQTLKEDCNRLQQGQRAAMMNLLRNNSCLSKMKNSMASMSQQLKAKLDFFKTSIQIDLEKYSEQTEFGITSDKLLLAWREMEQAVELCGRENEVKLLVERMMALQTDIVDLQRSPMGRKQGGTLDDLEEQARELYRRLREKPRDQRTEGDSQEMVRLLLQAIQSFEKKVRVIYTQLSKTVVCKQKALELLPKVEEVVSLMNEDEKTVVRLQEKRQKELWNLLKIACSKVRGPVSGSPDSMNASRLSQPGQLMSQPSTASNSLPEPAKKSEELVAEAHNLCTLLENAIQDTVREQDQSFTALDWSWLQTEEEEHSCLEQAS

[2] = target: T2, Serine/threonine-protein kinase TBK1 (Homo sapiens) (UniProt Q9UHD2); settings: at 1 µM
T2 sequence (whole entry): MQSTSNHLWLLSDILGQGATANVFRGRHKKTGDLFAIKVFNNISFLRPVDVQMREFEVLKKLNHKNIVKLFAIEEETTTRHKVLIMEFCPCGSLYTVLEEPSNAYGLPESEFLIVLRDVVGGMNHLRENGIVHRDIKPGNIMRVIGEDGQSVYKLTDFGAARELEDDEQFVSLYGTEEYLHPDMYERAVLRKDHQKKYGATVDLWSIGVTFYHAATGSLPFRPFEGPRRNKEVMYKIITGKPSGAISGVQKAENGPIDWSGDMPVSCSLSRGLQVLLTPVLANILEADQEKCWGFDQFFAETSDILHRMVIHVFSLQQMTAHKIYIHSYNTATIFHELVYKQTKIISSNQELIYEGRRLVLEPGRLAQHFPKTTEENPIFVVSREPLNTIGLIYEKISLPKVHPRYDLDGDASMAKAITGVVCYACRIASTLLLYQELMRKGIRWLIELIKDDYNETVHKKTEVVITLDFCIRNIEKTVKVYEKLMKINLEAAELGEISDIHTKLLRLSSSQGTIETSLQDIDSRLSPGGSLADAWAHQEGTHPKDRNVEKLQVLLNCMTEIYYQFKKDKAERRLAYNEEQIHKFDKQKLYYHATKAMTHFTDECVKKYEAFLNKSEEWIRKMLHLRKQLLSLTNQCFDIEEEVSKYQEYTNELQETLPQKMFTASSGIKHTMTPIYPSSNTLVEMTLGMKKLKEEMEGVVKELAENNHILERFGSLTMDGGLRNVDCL

[3] = target: T3, Tyrosine-protein kinase Mer (Homo sapiens) (UniProt Q12866); settings: at 10 µM
T3 sequence (whole entry): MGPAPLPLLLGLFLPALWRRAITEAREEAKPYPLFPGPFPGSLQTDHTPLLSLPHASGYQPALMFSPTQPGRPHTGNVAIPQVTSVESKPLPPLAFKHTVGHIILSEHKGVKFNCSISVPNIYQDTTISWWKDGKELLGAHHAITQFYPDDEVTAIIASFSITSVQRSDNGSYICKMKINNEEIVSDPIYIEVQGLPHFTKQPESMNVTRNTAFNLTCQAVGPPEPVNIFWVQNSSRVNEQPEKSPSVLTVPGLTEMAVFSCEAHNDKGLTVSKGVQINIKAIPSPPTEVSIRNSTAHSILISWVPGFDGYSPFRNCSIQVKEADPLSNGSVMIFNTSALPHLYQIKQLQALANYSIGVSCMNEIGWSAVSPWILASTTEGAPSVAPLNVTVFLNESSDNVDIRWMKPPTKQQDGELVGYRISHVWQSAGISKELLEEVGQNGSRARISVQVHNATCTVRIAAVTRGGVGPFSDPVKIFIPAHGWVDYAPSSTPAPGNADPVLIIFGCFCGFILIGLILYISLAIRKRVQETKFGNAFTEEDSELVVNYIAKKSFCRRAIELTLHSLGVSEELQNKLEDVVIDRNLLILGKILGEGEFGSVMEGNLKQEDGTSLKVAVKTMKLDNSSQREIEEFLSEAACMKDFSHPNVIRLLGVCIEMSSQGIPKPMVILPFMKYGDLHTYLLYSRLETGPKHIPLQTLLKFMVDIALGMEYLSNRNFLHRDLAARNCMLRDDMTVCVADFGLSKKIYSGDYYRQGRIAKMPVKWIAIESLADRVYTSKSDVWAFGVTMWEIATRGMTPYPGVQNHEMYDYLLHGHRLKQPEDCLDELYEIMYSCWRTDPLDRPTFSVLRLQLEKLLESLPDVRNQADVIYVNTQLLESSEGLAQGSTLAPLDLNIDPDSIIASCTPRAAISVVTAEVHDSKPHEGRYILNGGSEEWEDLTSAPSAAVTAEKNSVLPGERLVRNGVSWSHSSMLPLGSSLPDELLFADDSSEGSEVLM

[4] = target: T4, Inhibitor of nuclear factor kappa-B kinase subunit alpha (Homo sapiens) (UniProt O15111); settings: at 1 µM
T4 sequence (whole entry): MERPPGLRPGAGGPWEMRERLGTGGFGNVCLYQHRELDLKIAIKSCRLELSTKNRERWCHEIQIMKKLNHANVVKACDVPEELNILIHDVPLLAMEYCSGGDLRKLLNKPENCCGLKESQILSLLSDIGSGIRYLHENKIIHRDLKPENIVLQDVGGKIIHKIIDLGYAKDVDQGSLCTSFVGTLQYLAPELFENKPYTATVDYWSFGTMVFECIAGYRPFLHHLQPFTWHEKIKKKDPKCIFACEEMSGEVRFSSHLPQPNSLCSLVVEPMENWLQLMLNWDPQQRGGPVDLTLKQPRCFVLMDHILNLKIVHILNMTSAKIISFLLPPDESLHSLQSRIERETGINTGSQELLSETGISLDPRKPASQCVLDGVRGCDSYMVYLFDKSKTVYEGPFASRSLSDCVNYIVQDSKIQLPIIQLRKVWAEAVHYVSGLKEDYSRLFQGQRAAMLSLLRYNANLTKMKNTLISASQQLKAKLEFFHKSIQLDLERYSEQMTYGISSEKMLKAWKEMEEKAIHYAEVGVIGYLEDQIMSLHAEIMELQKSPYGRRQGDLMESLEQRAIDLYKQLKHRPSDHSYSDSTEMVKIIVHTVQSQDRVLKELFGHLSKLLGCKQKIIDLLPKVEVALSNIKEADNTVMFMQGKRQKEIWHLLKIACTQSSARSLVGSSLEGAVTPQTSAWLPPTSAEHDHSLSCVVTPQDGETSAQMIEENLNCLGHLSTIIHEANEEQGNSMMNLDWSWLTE

[5] = target: T5, Inhibitor of nuclear factor kappa-B kinase subunit epsilon (Homo sapiens) (UniProt Q14164); settings: at 1 µM
T5 sequence (whole entry): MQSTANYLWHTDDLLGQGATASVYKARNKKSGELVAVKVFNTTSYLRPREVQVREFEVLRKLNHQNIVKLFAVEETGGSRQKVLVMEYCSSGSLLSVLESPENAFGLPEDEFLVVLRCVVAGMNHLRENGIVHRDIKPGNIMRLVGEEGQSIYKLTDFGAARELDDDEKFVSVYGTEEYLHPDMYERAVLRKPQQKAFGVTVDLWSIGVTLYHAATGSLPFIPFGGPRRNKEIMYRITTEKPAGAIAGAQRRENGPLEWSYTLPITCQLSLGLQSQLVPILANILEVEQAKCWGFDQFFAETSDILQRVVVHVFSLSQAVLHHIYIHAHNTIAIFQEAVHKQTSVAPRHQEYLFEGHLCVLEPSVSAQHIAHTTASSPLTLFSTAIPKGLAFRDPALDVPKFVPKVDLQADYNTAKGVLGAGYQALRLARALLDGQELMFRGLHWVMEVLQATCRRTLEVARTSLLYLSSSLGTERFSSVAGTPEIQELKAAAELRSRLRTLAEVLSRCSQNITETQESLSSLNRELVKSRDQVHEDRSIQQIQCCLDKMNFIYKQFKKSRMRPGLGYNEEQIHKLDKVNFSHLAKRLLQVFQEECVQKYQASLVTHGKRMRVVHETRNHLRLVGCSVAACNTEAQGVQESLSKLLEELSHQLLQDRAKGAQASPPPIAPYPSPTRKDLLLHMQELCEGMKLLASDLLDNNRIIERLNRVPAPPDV

SMILES | inhibition [1] | inhibition [2] | inhibition [3] [%] | inhibition [4] | inhibition [5]
Fc1ccc(Oc2nccc(-c3c(-c4ccc(F)cc4)ncn3C3CCNCC3)n2)cc1 | 0% and 1% | 2% and 4% | 79 | 9% and 1% | 13% and 0%
Fc1ccc(-c2ncn(C3CCNCC3)c2-c2ccnc(Oc3cccc(C(F)(F)F)c3)n2)cc1 | -1% | 2% and 0% | 86 | 4% and 3% | 0%
O=C(O)c1ccc(Oc2nccc(-c3c(-c4ccc(F)cc4)ncn3C3CCNCC3)n2)cc1 | -3% and -2% | -5% and -6% | 2 | -1% | -3%
Fc1ccc(-c2ncn(C3CCNCC3)c2-c2ccnc(Oc3ccc(Cl)cc3)n2)cc1 | 0% and 5% | 3% and 4% | -8 | -3% and -4% | 1% and 3%
COc1ccccc1C1=C(Nc2ccccc2)C(=O)NC1=O | -2% | 5% | 17 | 3% and 4% | 8% and 6%
Cc1cccc(Oc2nccc(-c3c(-c4ccc(F)cc4)ncn3C3CCNCC3)n2)c1C | 1% | 2% and 4% | -7 | -5% and -6% | 2% and 1%
CC(C)(C)c1ccc(Oc2nccc(-c3c(-c4ccc(F)cc4)ncn3C3CCNCC3)n2)cc1 | -2% and 3% | 1% and 0% | -7 | 0% and -3% | 1%
O=C1NC(=O)C(c2cccc([N+](=O)[O-])c2)=C1Nc1cc(Cl)c(O)c(Cl)c1 | -4% and -3% | 91% and 90% | -7 | -10% and 5% | 54% and 53%
COc1ccccc1Oc1nccc(-c2c(-c3ccc(F)cc3)ncn2C2CCNCC2)n1 | 1% and -1% | 3% and 5% | 4 | -2% | 3%
CS(=O)(=O)c1ccc(Oc2nccc(-c3c(-c4ccc(F)cc4)ncn3C3CCNCC3)n2)cc1 | -1% and 0% | 3% and 5% | -3 | -2% and -1% | 1%
Fc1ccc(-c2ncn(C3CCNCC3)c2-c2ccnc(Oc3cccc(F)c3)n2)cc1 | -3% and -1% | -2% | -2 | 0% | -1%
NC(=O)CCc1ccccc1Oc1nccc(-c2c(-c3ccc(F)cc3)ncn2C2CCNCC2)n1 | 0% and 1% | 4% | 95 | 1% | 3% and 4%
O=C1NC(=O)C(c2ccccc2)=C1Nc1ccccc1 | -3% and -5% | 3% | 26 | 1% | 2% and -1%
O=C1NC(=O)C(c2ccccc2Cl)=C1Nc1cc(Cl)c(O)c(Cl)c1 | -7% and -1% | 21% and 19% | 13 | 2% and 3% | 17% and 15%
